Screen size: about 150,000 compounds; about 540 (0.36%) showed an effect of 50% or more. This is one part of the list.

For this experiment, the system named is Plasmodium falciparum. The experiment can be described thus: Primary screen in NF54 nanoGlo assay, in single point, at 2uM, 72h; a lower Z score goes with more inhibition. The experiment is classed as functional, Erythrocyte. Conditions: timepoint 72 hour.
By % Inhibition is commonly meant the change of the read-out against control, counted positive when it falls. For `c1cn([C@H]2CCCN(Cc3c[nH]nn3)C2)nn1`, the “% Inhibition” value is listed as 2% and the Z score is given as -0.34.

For `COCC(C)C(=O)N1CC2CCCC2C1C(N)=O` (centres undefined), the “% Inhibition” value is on record as -6% and the Z score was found to be 1.15.

With `O=C1N(CC2CC2)CCC[C@@]12CCN(S(=O)(=O)c1ccc(F)cc1F)C2`, the “% Inhibition” value is -10% and the Z score turned out to be 1.

In the case of `O=C(Nc1ccccc1F)Nc1ccccc1NC(=O)c1ccccc1Cl`, the “% Inhibition” value was found to be 4% and the Z score is on record as -0.43.

`O=S(=O)(NCc1ccccc1)N1CCC(Nc2ncccn2)CC1`: the “% Inhibition” value is recorded as -14% and the Z score was 2.72.

Regarding `CCN=C(NCCCCc1nc(C)cs1)N(C)Cc1cnn(C)c1`, the “% Inhibition” value was -17% and the Z score stood at 1.51.

For the compound `Cc1cc(C)nc(N2CCN(C(=O)c3coc4ccccc34)CC2)n1`, the “% Inhibition” value was -8% and the Z score came to 0.77.

Consider `Cc1c(C(=O)N2CC[C@@](O)(C3CCOCC3)[C@H](C)C2)n(C)c2c(C)cccc12`, for which the “% Inhibition” value was -16% and the Z score was determined as 2.09.

`Cc1c(C(=O)N2CC3CCC2C3)sc2ncc(C(=O)N3CC4CCC3C4)cc12` (centres undefined): the “% Inhibition” value is -11% and the Z score is 1.79.

Turning to `C=CCC1(OCc2ccccc2)CCN(CCC(=O)N(C)C)CC1`, the “% Inhibition” value was -5% and the Z score was 0.74.

For `CCCn1cc(S(=O)(=O)NCCCc2csc(N)n2)cn1`, the “% Inhibition” value was -2% and the Z score is 0.41.

In the case of `CCOc1cc2sc(N3CCC(C(=O)NCCN(C)C4CCCCC4)CC3)nc2cc1Br`, the “% Inhibition” value is -14% and the Z score came out at 1.72.

Turning to `CCc1ccc(C(=O)NC2CCN(c3ccccc3C(=O)N3CCc4ccccc4C3)CC2)cc1`, the “% Inhibition” value is reported as -9% and the Z score was found to be 1.54.

On to `CC[C@@H](CC#N)NC(=O)c1cc(Cl)cc(F)c1N`, for which the “% Inhibition” value is -1% and the Z score came out at 0.07.

On to `Cc1ccc(-c2nc(Cn3nnc(-c4nc(-c5ccc(F)cc5)no4)c3C)c(C)o2)cc1`, for which the “% Inhibition” value was -1% and the Z score came to 0.11.

As for `CC(Oc1ccc(Br)cc1)C(=O)N1CC[C@@H](N)C1` (some centres undefined), the “% Inhibition” value was -7% and the Z score was 0.91.

On to `Cn1ncc(C#N)c1NC(=O)C1CCN(S(=O)(=O)c2ccc(Cl)cc2)CC1`, for which the “% Inhibition” value turned out to be 31% and the Z score is listed as -3.55.

Regarding `O=C(NCc1ccc(-c2ccccn2)s1)c1ccccc1[C@H]1CCNC1`, the “% Inhibition” value was 9% and the Z score was -1.57.

For the compound `O=C(C[C@@H]1C=CCCC1)N1CC(CF)C1`, the “% Inhibition” value is -14% and the Z score was 1.57.

Consider `CC(=O)N1CC[C@]2(CO)CN(C(=O)c3cccc(C(F)(F)F)c3)C[C@@H]2C1`, for which the “% Inhibition” value is on record as -13% and the Z score is listed as 1.87.

Consider `CCc1ncc(C(=O)N2CCN(c3ccc(OC)cc3)CC2)s1`, for which the “% Inhibition” value is recorded as -29% and the Z score is recorded as 3.45.

In the case of `CC[C@@H](CNCc1cscn1)Oc1cccc(F)c1`, the “% Inhibition” value is -11% and the Z score is 1.68.

With `COc1cc(CNC2(c3nc(C)cs3)CCC2)ccc1Cl`, the “% Inhibition” value is listed as 1% and the Z score was -0.19.

For the compound `COc1c(C)cnc(CN2CC[C@@]3(CCCN(CC4CCC4)C3=O)C2)c1C`, the “% Inhibition” value is reported as -6% and the Z score is on record as 1.18.

With `N#Cc1ccc(NC[C@@H](CO)Cc2ccccn2)c(F)c1`, the “% Inhibition” value is on record as -14% and the Z score was 1.22.

For `CC(=O)Nc1ccccc1CNC(=O)[C@]1(c2ccccc2)CCCO1`, the “% Inhibition” value is -1% and the Z score is on record as 0.1.

For `COc1ccc(CNC(=O)c2sc(=S)n(-c3ccc(F)c(Cl)c3)c2N)cc1`, the “% Inhibition” value is given as -8% and the Z score amounted to 1.03.

In the case of `O=C(CN1CCCN(CC(=O)Nc2ccnn2C2CCCC2)CC1)Nc1ccnn1C1CCCC1`, the “% Inhibition” value is recorded as -14% and the Z score is listed as 1.85.

For `CC(=O)N1CCN(c2ncccc2CNS(=O)(=O)N2CCCC2)CC1`, the “% Inhibition” value is -21% and the Z score stood at 1.88.

For `CCn1cc(S(=O)(=O)N2CC(c3nc(CCN(C)C(=O)c4ccncc4)no3)C2)cn1`, the “% Inhibition” value is -10% and the Z score is given as 1.25.

As for `CC(C)(C)CN(CCCO)S(=O)(=O)N1CCCCCC1`, the “% Inhibition” value is on record as -9% and the Z score was 0.95.

On to `CCCn1cc(S(=O)(=O)N[C@@H](C)C2=CCCCC2)cn1`, for which the “% Inhibition” value is -8% and the Z score amounted to 0.98.

With `CCOc1cc2cc(c1)C(=O)N(C)CC(=O)N[C@@H]1CN(CC(=O)Nc3cnn(C)c3)CC[C@@H]1OCc1cccc(c1)O2`, the “% Inhibition” value was -1% and the Z score was found to be 0.18.

On to `C[C@@H](CNC(=O)C1CCCN1C1CCOCC1)Oc1ccc(Cl)cc1` (some centres undefined), for which the “% Inhibition” value is listed as -5% and the Z score is 0.57.

Take `CN1CCC2(CC1)CN(C(=O)c1ccccc1-c1ccccc1)CCCN2C`: the “% Inhibition” value was 1% and the Z score is on record as -0.1.

For the compound `COc1cccc(N2C(=O)N(CC#N)S(=O)(=O)c3cccnc32)c1`, the “% Inhibition” value is recorded as -5% and the Z score was found to be 0.52.

`O=C([C@H]1CCCN(C2CCN(Cc3ccncc3)CC2)C1)N1Cc2ccccc2C1`: the “% Inhibition” value is listed as -5% and the Z score is recorded as 1.04.

On to `CC(NC(=O)C1CCC1)C(=O)NC(CN1CCOCC1)C(C)C` (centres undefined), for which the “% Inhibition” value is listed as -3% and the Z score was 0.7.

For the compound `CCC(NC1CCCN(CC(F)(F)F)C1=O)C(=O)OC` (centres undefined), the “% Inhibition” value stood at 0% and the Z score was determined as 0.05.

Take `OC[C@@H](O)CN1CCc2[nH]nc(-c3cccc4ccccc34)c2C1`: the “% Inhibition” value is -4% and the Z score came out at 0.5.

Take `Cc1ccc(CN2C[C@@H]3OC(=O)N(C4CCCC4)[C@@H]3C2)cc1C`: the “% Inhibition” value is on record as 6% and the Z score is -0.89.

For `COCCNC(=O)c1coc(CN(Cc2ccc(C(F)(F)F)cc2)Cc2ccc3c(c2)OCO3)n1`, the “% Inhibition” value is reported as -6% and the Z score is given as 1.02.

On to `O=C(O)Cc1csc(-c2cccc3ccccc23)n1`, for which the “% Inhibition” value was determined as 3% and the Z score is -0.57.

Regarding `Cc1ccc(S(=O)(=O)/N=C(\CN2CCOCC2)N2CCCCC2)cc1`, the “% Inhibition” value is -1% and the Z score is 0.11.

With `Cc1cc(COc2ccccc2)oc1C(=O)N1CC(n2cccn2)C1`, the “% Inhibition” value is given as -3% and the Z score was found to be 0.58.

As to `CC(C)OCC[C@@](C)(C#N)NC(=O)c1ccc(F)c(Cl)c1F`, the “% Inhibition” value is -2% and the Z score is given as 0.21.

For the compound `O=C1[C@@H]2[C@H](CO)N[C@]3(C(=O)Nc4ccccc43)[C@@H]2C(=O)N1Cc1ccccc1`, the “% Inhibition” value is -2% and the Z score worked out at 0.32.

Take `CN(Cc1cnc2ccccc2c1)C(=O)c1ccc(CCC(C)(C)O)cc1`: the “% Inhibition” value is given as -5% and the Z score is on record as 0.64.

As for `O=C(N[C@H]1CCS(=O)(=O)C1)c1cccc(Oc2cccc(C(F)(F)F)c2)c1`, the “% Inhibition” value was -25% and the Z score is 2.94.

As for `Clc1ccc(-c2c[nH]c([C@@H]3COCCN3C3CCCCC3)n2)s1`, the “% Inhibition” value is listed as -12% and the Z score came to 1.58.

As to `Cc1occc1C(=O)N1C[C@@H](COc2ccncc2)[C@H](C(N)=O)C1`, the “% Inhibition” value is on record as -2% and the Z score came to 0.38.

In the case of `O=C(c1ccc(OC[C@H]2CCCO2)nc1)N1CCC(F)(F)CC1`, the “% Inhibition” value came out at 4% and the Z score is reported as -0.63.

For the origin of these results see ChEMBL document CHEMBL4888484, “Replenishing the malaria drug discovery pipeline: Screening and hit evaluation of the MMV Hit Generation Library 1 (HGL1) against asexual blood stage Plasmodium falciparum ,using a nano luciferase reporter read-out” (2022).
